Assay results as given in PubChem BioAssay AID488969 (Vanderbilt High Throughput Screening Facility, 2010).
Over roughly 110,000 compounds, “z-score” has its median near -0.1; the highest 2% begin near 2. The list shows a part of the results.

molecular target: Metabotropic glutamate receptor 8 (Rattus norvegicus) (UniProt P70579); experiment: rat mGluR8 modulators via GIRK flux, primary screen, cell-based, thallium flux, HTS (AID 488969); details: HEK293 rat mGluR8, GIRK (G protein-gated inwardly rectifying potassium channel) thallium flux, FluoZin2; at 10 µM; stronger effect = higher value; submaximal glutamate (EC20) added with thallium
Sequence of UniProt P70579 (P70579 whole entry, looked up): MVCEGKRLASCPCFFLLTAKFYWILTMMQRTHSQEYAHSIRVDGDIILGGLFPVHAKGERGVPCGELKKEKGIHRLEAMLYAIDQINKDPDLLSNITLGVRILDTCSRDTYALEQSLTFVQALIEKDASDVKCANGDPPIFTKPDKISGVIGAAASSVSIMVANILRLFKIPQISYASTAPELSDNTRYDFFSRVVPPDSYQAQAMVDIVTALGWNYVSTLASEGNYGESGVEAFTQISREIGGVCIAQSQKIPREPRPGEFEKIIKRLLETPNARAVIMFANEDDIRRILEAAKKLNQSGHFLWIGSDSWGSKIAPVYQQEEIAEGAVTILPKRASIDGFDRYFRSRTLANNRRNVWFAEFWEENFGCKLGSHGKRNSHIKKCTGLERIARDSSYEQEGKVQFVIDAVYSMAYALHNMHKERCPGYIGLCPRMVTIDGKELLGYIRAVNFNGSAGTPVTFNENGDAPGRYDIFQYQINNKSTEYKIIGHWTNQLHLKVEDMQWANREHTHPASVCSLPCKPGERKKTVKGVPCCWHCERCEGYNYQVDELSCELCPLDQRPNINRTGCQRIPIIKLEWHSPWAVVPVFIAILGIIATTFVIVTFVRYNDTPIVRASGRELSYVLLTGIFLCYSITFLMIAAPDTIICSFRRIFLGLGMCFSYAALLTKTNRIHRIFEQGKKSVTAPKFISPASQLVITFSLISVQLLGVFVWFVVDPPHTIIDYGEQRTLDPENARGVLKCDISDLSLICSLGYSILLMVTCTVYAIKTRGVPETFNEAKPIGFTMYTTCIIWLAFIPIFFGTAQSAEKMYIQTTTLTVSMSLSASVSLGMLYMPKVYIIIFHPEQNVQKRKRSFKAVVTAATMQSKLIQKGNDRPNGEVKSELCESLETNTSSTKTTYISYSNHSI

Row | Structure (SMILES) | z-score
1 | COc1ccc(NC(=S)N(CCCN2CCN(C)CC2)Cc2cccs2)cc1 | 0.221
2 | C=C(C)CN=c1scc(C)n1/N=C/c1ccco1 | -0.798
3 | CC(=O)NC(CC(=O)Nc1cccc(S(=O)(=O)N2CCCCC2)c1)c1ccccc1 (configuration not stated) | 0.132
4 | CCN(CC)C(=O)c1sc(NC(=O)Cc2ccc(OC)cc2)c(C#N)c1C | -0.246
5 | CC(=O)NCC(=O)N(C)C(C(=O)Nc1ccc(C(C)C)cc1)c1ccccc1 (configuration not stated) | 0.272
6 | NC(=O)CNC(=O)[C@@H]1CC2(CC(c3cccc([N+](=O)[O-])c3)=NO2)CN1C(=O)c1ccccc1 (some centres not stated) | -0.201
7 | CCCn1c(SCC(N)=O)nc2c(c1=O)C1(CCCC1)Cc1ccccc1-2 | -0.333
8 | O=C1C(=O)N(CNc2ccccn2)c2ccccc21 | 0.0523
9 | CCn1cc(/C=N/NS(=O)(=O)c2ccc(C)cc2)c(C)n1 | -0.045
10 | CCN(CC)S(=O)(=O)c1ccc(NC2c3ccccc3C(=O)N2Cc2ccco2)cc1 (configuration not stated) | -1.18
11 | COc1ccc(-c2nc(NC(=O)CSc3nnc4ccccn34)ns2)cc1 | -0.0274
12 | CC(=O)c1cc2c(C)cc(=O)oc2cc1O | -0.155
13 | COC(=O)Nc1nnc(Cc2ccc(Cl)cc2)s1 | 2.4
14 | O=C(N/N=C/c1c[nH]c2c1ccc1ccccc12)c1ccc([N+](=O)[O-])cc1 | -0.602
15 | Cc1ccc(Nc2nnc(SCC(=O)Nc3ncc(S(=O)(=O)c4ccc([N+](=O)[O-])cc4)s3)s2)cc1 | -0.282
16 | Cc1noc(C)c1COC(=O)c1ccc2c(c1)OCCO2 | -0.998
17 | COC(=O)Nc1nc(C)c(C(=O)c2ccccc2)s1 | 1.66
18 | CCCCn1c(CNC(=O)C(C)(C)C)nc2ccccc21 | -0.464
19 | O=C(COC(=O)c1ccc(Br)o1)NCc1cccs1 | -0.099
20 | COc1ccnc(N2CCN(c3ccc(Cl)cc3)CC2)c1C#N | -0.323
21 | Cc1ccc2c(c1)N(CC(=O)N1CCCc3ccccc31)C(=O)C(C)O2 (configuration not stated) | -0.363
22 | CCC(=O)Nc1ccc(C(=O)CSc2nnc(-c3ccc(O)cc3)n2CC2CCCO2)cc1 (configuration not stated) | 0.865

Row | Structure (SMILES) | z-score
23 | O=C(Nc1cccc(C(F)(F)F)c1)c1ccc2nc(N3C(=O)CCC3=O)sc2c1 | -0.134
24 | Cn1cc(Br)c(C(=O)NNC(=O)c2ccc(Cl)cc2)n1 | 0.00226
25 | CCOC(=O)C1CCCN(CC(O)COc2cccc(C)c2)C1 (configuration not stated) | -0.189
26 | CCOC(=O)C1CCN(C(=O)CCN2C(=O)C3C4C=CC(C4)C3C2=O)CC1 (configuration not stated) | 0.00852
27 | Clc1ccc(-c2nnc(SCc3nc(-c4ccccc4)no3)o2)cc1 | -0.0626
28 | CCc1ccc(N/C(SC)=C(/C#N)C(N)=O)cc1 | 0.119
29 | CCOc1ccc(/C=C/C(=O)NCc2ccccc2)cc1 | -0.184
30 | Cc1nc(NC(=O)COc2ccc(Cl)cc2)sc1C(=O)N(C)C | -0.121
31 | CCn1nc(C)c(/C=N\NC(=O)c2ccc3c(c2)OCO3)c1C | -0.209
32 | CN(C)C(=O)c1cn(-c2ccccc2)nc1-c1cccs1 | 0.354
33 | CCC(CC)c1nnc(NC(=O)c2nc3nc(C)cc(C)n3n2)s1 | -0.0644
34 | COc1ccc(NC(=O)c2cc(C(C)C)on2)c(OC)c1 | 0.43
35 | O=C(OCC1OC(n2ccc(=O)[nH]c2=O)C(O)C1OC(=O)c1ccccc1)c1ccccc1 (configuration not stated) | -0.354
36 | Cc1noc(C)c1C(=O)N1CCN(CCc2ccccc2)CC1 | -0.189
37 | COc1cc(C(=S)N2CCOCC2)ccc1OC(=O)c1cc([N+](=O)[O-])cc([N+](=O)[O-])c1 | -0.0466
38 | CCC(=O)NC(=S)Nc1ccc(-c2nc3ccccc3s2)cc1 | -0.031
39 | CSc1nnc2c3ccccc3n(Cc3ccccc3)c2n1 | 0.241
40 | O=C(CNS(=O)(=O)c1ccc(Br)cc1)N1CCOCC1 | 0.165
41 | CSc1ccccc1NC(=O)COc1ccc(S(=O)(=O)N2CCCC2)cc1 | -0.177
42 | CCOC(=O)c1c(C)n(C)c2ccc(OCC(O)Cn3c(C)nc4ccccc43)cc12 (configuration not stated) | -2.32
43 | COc1ccc(CN(C(=O)c2oc3ccccc3c2C)C2CCS(=O)(=O)C2)cc1OC (configuration not stated) | -0.16
44 | O=C(O)Cn1cc(C(=S)N2CCOCC2)c2ccccc21 | -0.136

Row | Structure (SMILES) | z-score
45 | CSC1CCCCC1(O)CSc1nc2ccccc2o1 (configuration not stated) | -0.0413
46 | CC(=O)Nc1ccc(S(=O)(=O)N2CCN=C2C)cc1 | 0.0196
47 | N#Cc1cc([N+](=O)[O-])ccc1Oc1cccc(/C=N/NC(=O)c2cccc(Cl)c2)c1 | -0.277
48 | COC(=O)c1ccc(NC(C(=O)OC)C(C)C)c([N+](=O)[O-])c1 (configuration not stated) | -0.261
49 | CN(Cc1ccccc1)S(=O)(=O)c1ccc(OCC(=O)N2CCOCC2)cc1 | 0.0571
50 | Cc1cccc(/C=N/NC(=O)c2cc(-c3cccnc3)nc3c2c(C)nn3-c2ccccc2)c1 | 0.217
51 | N#Cc1c2n(c3c(=O)n(Cc4ccccc4Cl)cnc13)CCCC2 | -0.509
52 | CC(C)c1ccc(NC(=O)CSc2nc(-c3ccccc3F)nc3nc[nH]c23)cc1 | -0.223
53 | COc1cccc(C2CC(c3ccccc3Cl)n3nc(N)nc3N2)c1 (configuration not stated) | -1.36
54 | Cc1cc(C(=O)COC(=O)CN(C)S(=O)(=O)c2ccc(Cl)cc2)c(C)n1CC1CCCO1 (configuration not stated) | -0.382
55 | CC(C)CCNc1nc(N)c([N+](=O)[O-])c(NCC2CCCO2)n1 (configuration not stated) | -0.0499
56 | CC(C)(C)c1ccc(C(=O)NCC(=O)OCC(=O)Nc2ccccc2[N+](=O)[O-])cc1 | -0.147
57 | CC(NC(=O)Nn1cnnc1)(C(F)(F)F)C(F)(F)F | 0.0258
58 | Cc1ccc(SC(C)C(=O)Nc2ncn[nH]2)cc1 (configuration not stated) | -0.0401
59 | CCOC(=O)C1CCN(c2ncnc3c2oc2ccc(Cl)cc23)CC1 | -0.48
60 | Cn1cc(CNC(=O)C23CC4CC(CC(C4)C2)C3)cn1 | -0.188
61 | Cc1ccc(NCCC(=O)c2cccs2)cc1Cl | 0.494
62 | C=CCOc1ccccc1/C=c1\sc2nc(-c3oc4ccccc4c3C)nn2c1=O | -0.459
63 | O=C(COC(=O)Cc1cccs1)Nc1ccc(F)c(F)c1F | -0.0862
64 | CCCOc1ccc(C(=O)NCc2cccnc2)cc1 | 0.114
65 | C=CCn1c(SCCOc2ccc(OC)cc2)nnc1C(C)NC(=O)c1ccc(OC)cc1 (configuration not stated) | 0.609
66 | CCOc1ccc(-c2cc(N)n(S(=O)(=O)c3ccc(OC)cc3)n2)cc1 | -0.00856

Row | Structure (SMILES) | z-score
67 | Cc1ccc(OCCNS(=O)(=O)c2ccc(N3CCCC3=O)cc2)cc1 | -0.264
68 | COc1ccccc1-c1cc(C(F)(F)F)nc(N2CCCC2)n1 | -0.172
69 | COc1ccc(C(=O)NNC(=O)CSc2nnc(COc3ccccc3)n2C)cc1 | -0.419
70 | COc1ccc(NC(=O)c2ccc3ccccc3n2)cc1S(=O)(=O)Nc1ccccc1Cl | 0.0764
71 | COc1ccccc1OCc1ccc(C(=O)NN)cc1 | -0.037
72 | Cc1ccc(S(=O)(=O)NCCOc2nc(N(C)C)nc(N3CCOCC3)n2)cc1 | 1.62
73 | Cc1ccccc1OCc1nnc(SCC(=O)Nc2c(C)n(C)n(-c3ccccc3)c2=O)n1-c1ccccc1 | -0.613
74 | O=C(COC(=O)CCc1c[nH]c2ccccc12)NC1CCS(=O)(=O)C1 (configuration not stated) | 0.342
75 | O=C(Nc1ccon1)C1CCN(S(=O)(=O)c2cccs2)CC1 | 0.029
76 | CCCCNS(=O)(=O)c1ccc(OC)c(C)c1 | 0.142
77 | CSCC[C@H](NC(=O)c1ccc(Cl)c([N+](=O)[O-])c1)c1nc2ccccc2[nH]1 | -0.0228
78 | CC1(C)CC(=O)c2cc(C(=O)NCc3ccco3)c(=O)n(-c3ccccc3)c2C1 | -0.132
79 | c1ccc(-c2cc(-c3ccncc3)nc3ccc4ccccc4c23)cc1 | 0.335
80 | COC(=O)C1=C(C(=O)OC)SC2(S1)C(C(=O)OC)=C(C(=O)OC)SC1=C2c2cc(C)cc(C)c2NC1(C)C | -0.12
81 | CC(NC(=O)c1ccccc1O)c1ccccc1 (configuration not stated) | 0.207
82 | C=CCNC(=S)NCC1COc2ccccc2O1 (configuration not stated) | -0.0688
83 | CC(=O)NCCC(Cc1ccccc1)c1ccco1 (configuration not stated) | -0.0483
84 | CCOC(=O)CSc1nnc(NC(=O)c2cccc(S(=O)(=O)N3CCCC3)c2)s1 | 0.542
85 | Cc1nc(Nc2ccc(S(=O)(=O)N3CCCC3)cc2)c2nnn(Cc3ccccc3)c2n1 | 0.261
86 | COc1ccccc1NC(=O)c1sc2ncn(Cc3ccc(C)cc3)c(=O)c2c1C | -0.249
87 | COC(=O)COc1ccc(S(=O)(=O)Nc2ccc3c(c2)OCO3)cc1 | -0.955
88 | O=C(NCCN1CCN(c2ccccc2)CC1)C1CCN(S(=O)(=O)c2cccc3nonc23)CC1 | -0.208

Row | Structure (SMILES) | z-score
89 | CCOC(=O)c1cccc(NC(=O)CNC(=O)C2CCCCC2)c1 | 1.68
90 | Cc1ccc(C2=NNC(c3ccc(Cl)cc3)=Nc3ccccc32)o1 | -0.31
91 | Cc1cccc(C2(c3cccc(C)c3)CC2C(=O)Nc2ccc([N+](=O)[O-])cc2O)c1 (configuration not stated) | -0.0299
92 | Nc1cc2c(cc1[N+](=O)[O-])OCCO2 | -0.0875
93 | COP(=O)(OC)c1nc(-c2cccc3ccccc23)oc1NCc1ccccc1 | -0.666
94 | COCCN(C(=O)CN1CCCc2ccccc21)c1c(N)n(Cc2ccccc2)c(=O)[nH]c1=O | -0.231
95 | O=C(Cn1c(C(F)(F)F)nc2ccccc21)NCCN1CCCC1 | 0.278
96 | O=C(c1cc(Cl)c(=O)n(Cc2ccc(Cl)cc2)c1)N1CCOCC1 | -0.00215
97 | Cc1ccc(-c2nnn(CC(=O)N(CC(=O)NC3CCCCC3)c3cnc4ccccc4c3)n2)o1 | -0.701
98 | O=C(COc1ccccc1)NCC(=O)N/N=C/c1ccccc1 | -0.398
99 | Cc1cc(C)n(Cc2ccc(NC(=O)c3nn(C)cc3[N+](=O)[O-])cc2)n1 | -0.0262
100 | Cc1nn2cc(-c3ccc(-c4ccccc4)cc3)nc2s1 | 0.815
101 | Cc1n[nH]c(=O)nc1N1CCN(c2ccccc2)CC1 | 0.202
102 | Cc1ccc(C)c(N2CCN(C(=O)CN(C)S(=O)(=O)c3cnc[nH]3)CC2)c1 | -0.0229
103 | O=C(O)c1cc(NS(=O)(=O)c2ccc(N3CCOCC3)c([N+](=O)[O-])c2)cc(C(=O)O)c1 | -0.0533
104 | CC(NC(=O)Cn1cc(C(=O)C2CC2)c2ccccc21)c1ccccc1 (configuration not stated) | 0.266
105 | O=C(c1ccco1)N1CCN(C(=O)c2cc(-c3ccncc3)nc3ccc(Br)cc23)CC1 | -0.141
106 | O=C(CSc1ccc(Cl)cc1)N1CCOCC1 | 0.1
107 | O=S(=O)(c1ccc2c(c1)oc1ccccc12)N1CCOCC1 | -0.33
